Results published in PubChem BioAssay AID624417 (National Center for Advancing Translational Sciences (NCATS), 2012).
The whole screen tested about 410,000 compounds, of which about 6,400 (1.6%) were called active. Inconclusive results, whose numbers are uncertain, are shown with a selection of clear calls. Calls follow the shape of the dose curve; as a rule, active = well fitted inhibition curve with a large enough effect; inconclusive = small, poorly fitted or top-dose-only effect; inactive = no such curve, though single readings can be large or run the other way. Potencies of inconclusive entries are left out as doubtful fits.
% is scaled to controls: 0 for no effect and ±100 for the full control effect; potency is read from the fitted curve at half-maximal effect; tags tell the direction and shape of the fitted curve.
Also: nearly all actives have a fitted effect of over 55% in size.

The compounds below were run against Glucagon-like peptide 1 receptor (Homo sapiens) (UniProt P43220) (assay: qHTS of GLP-1 Receptor Inverse Agonists (Inhibition Mode)). Conditions: HEK293 GLP-1R CRE-luciferase, luminescence, 24 h, GLP-1R form is constitutively active; activity change, negative = inhibition: at 38.3 µM (top of the series) unless noted.
Sequence of UniProt P43220 (P43220 whole entry, looked up): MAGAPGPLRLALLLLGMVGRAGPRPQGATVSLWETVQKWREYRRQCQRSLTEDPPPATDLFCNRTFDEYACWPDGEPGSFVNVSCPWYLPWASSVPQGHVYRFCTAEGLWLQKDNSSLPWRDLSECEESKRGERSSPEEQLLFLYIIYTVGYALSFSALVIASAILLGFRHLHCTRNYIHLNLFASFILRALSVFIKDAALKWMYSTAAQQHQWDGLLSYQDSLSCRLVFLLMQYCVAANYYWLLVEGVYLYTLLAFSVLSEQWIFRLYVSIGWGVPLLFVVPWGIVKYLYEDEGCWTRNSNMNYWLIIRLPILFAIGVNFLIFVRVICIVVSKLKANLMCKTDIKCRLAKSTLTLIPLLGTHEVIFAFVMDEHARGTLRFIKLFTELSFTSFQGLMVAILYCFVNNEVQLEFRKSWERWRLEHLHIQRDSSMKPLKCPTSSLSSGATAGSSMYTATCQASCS
Outline: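 Cells are plated, allowed 12 hours at 37 deg C, then treated with compounds for 24 hr before luciferase detection reagent is added and luminescence is read after 12 min at room temperature. The HEK293 line carries constitutively active GLP-1R with a cAMP-responsive reporter.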
`C=CCN(C(=O)CSC1=NC(=O)CN1C(C)=O)c1nc(C)c(-c2ccccc2)s1` was tested, and the Potency was inconclusive [inhibitor, partial curve, poor fit].
For `Cc1cccc(OCCCC(=O)NNC(=O)c2ccccn2)c1`, the Potency was inconclusive [inhibitor, partial curve, poor fit].
In the case of `COc1ccc(CNc2ncc(-c3ccc(F)cc3)n2C)c2ccccc12`, the Potency is reported as inconclusive [inhibitor, partial curve, poor fit].
For `O=C(Nc1nc2cc3c(cc2s1)OCCO3)C1CCCCC1`, the Potency was inconclusive [inhibitor, partial curve, poor fit].
`CC(=NNC(=S)N1CC2CCC(CC2)C1)c1cnccn1` was tested, and the Potency was inconclusive [inhibitor, full curve, poor fit].
With `Cc1cccc(C)c1NC(=O)C1(N2C(=O)CC2c2ccccc2)CCCCC1` (configuration not stated) the Potency was inconclusive [inhibitor, partial curve, poor fit].
In the case of `CCN(CC(=O)Nc1ccc2c(c1)OCCO2)C(=O)COc1cc(C)ccc1Cl`, the Potency is reported as inconclusive [inhibitor, single point].
For `Cc1cc(C)c(NC(=O)C(=O)NCCc2csc(-c3ccc(F)cc3)n2)c(C)c1`, the Potency was inconclusive [inhibitor, single point].
In the case of `CC(=O)n1cc(N(C(=O)CCl)c2ccc(C)cc2)c2ccccc21`, the Potency is reported as active: 4.47 µM.
`N/C(=N\OC(=O)N1c2ccccc2Sc2ccccc21)c1ccc(Br)cc1` was tested, and the Potency was inconclusive [inhibitor, single point].
For `COc1ccc(N(CC(=O)NCCc2ccc(Cl)cc2)S(=O)(=O)c2c(C)[nH]c(=O)[nH]c2=O)cc1`, the “activity change, negative = inhibition” value was inactive: 69.8%.
With `COc1c(Cl)cc(C(=O)NN)cc1Cl` the Potency was inconclusive [inhibitor, full curve, poor fit].
In the case of `O=C(NC1CCCCC1)C(c1ccnc2ccccc12)n1c(=O)c(-c2ccccc2)nc2ccccc21` (configuration not stated), the “activity change, negative = inhibition” value is reported as inactive: -7.89%.
In the case of `Cc1ccc(C(=O)C2=C(O)C(=O)N(Cc3ccco3)C2c2cccc(Br)c2)o1` (configuration not stated), the Potency is reported as inconclusive [inhibitor, single point].
`CC(C)CCC(C)NC(=O)CN1C(=O)NC(C)(c2ccc3ccccc3c2)C1=O` (configuration not stated) was tested, and the Potency was inconclusive [inhibitor, single point].
In the case of `O=S(=O)(NCCCN1CCN(c2ccccc2F)CC1)c1cccc2cccnc12`, the Potency is reported as inconclusive [inhibitor, partial curve, poor fit].
In the case of `CCOc1ccc(OCc2ccc(C(=O)N3CCCCC3)o2)cc1`, the Potency is reported as inconclusive [inhibitor, full curve, poor fit].
For `O=C1c2cccc(OCC(=O)N3N=C(c4cccs4)CC3c3ccc(F)cc3)c2CCN1Cc1cccnc1` (configuration not stated), the Potency was inconclusive [inhibitor, single point].
In the case of `CO[C@@H]1CN(C)C(=O)c2ccc(NC(=O)C3CCCC3)cc2OC[C@@H](C)N(Cc2ccc(F)cc2)C[C@H]1C`, the Potency is reported as inconclusive [inhibitor, single point].
For `Cc1csc(SC(C)C(=O)Nc2ccc(S(=O)(=O)N3CCCC3)cc2)n1` (configuration not stated), the Potency was inconclusive [inhibitor, partial curve, poor fit].
In the case of `COc1ccccc1N(C)S(=O)(=O)c1ccc(C(=O)NCc2ccccc2CN2CCCC2)cc1`, the Potency is reported as inconclusive [inhibitor, partial curve, poor fit].
With `COC(=O)[C@@]12C[C@@H](CC(=O)NCC34CC5CC(CC(C5)C3)C4)C(=O)N(CCc3ccc(OC)c(OC)c3)C1=CCC(C)(C)C2` the Potency was inconclusive [inhibitor, partial curve, poor fit].
In the case of `O=C(N/N=C/c1ccccc1Cl)c1[nH]c2ccc(Br)cc2c1-c1ccccc1`, the Potency is reported as inconclusive [inhibitor, full curve, poor fit].
For `Cc1cccc(NC(=O)Cn2c(=O)n(Cc3ccccc3)c(=O)c3oc4ccccc4c32)c1C`, the “activity change, negative = inhibition” value was inactive: -4.1%.
With `Cc1ccc(CNC(=O)c2c(Nc3c(C)cccc3C)sc(C(=O)c3ccccc3)c2N)cc1` the Potency was active: 7.08 µM.
`CCCn1c(=N)n(CCOc2ccc(OC)cc2)c2ccccc21` was tested, and the Potency was inconclusive [inhibitor, single point].
For `CCOc1ccccc1NC(=O)C1=C(C)Nc2ncnn2C1c1ccco1` (configuration not stated), the Potency was inconclusive [inhibitor, partial curve, poor fit].
In the case of `COc1ccc(C(C)(C)C)cc1NC(=O)C1CCCO1` (configuration not stated), the Potency is reported as inconclusive [inhibitor, partial curve, poor fit].
With `N#Cc1cccc(NC(=O)Nc2cccs2)c1` the Potency was inconclusive [inhibitor, single point].
`CC(C)(C)c1cc[n+](C2=C([O-])c3ccccc3C(=O)/C2=N\S(=O)(=O)c2cccs2)cc1` was tested, and the Potency was inconclusive [inhibitor, partial curve, poor fit].
For `O=[N+]([O-])c1ccc(-c2cnc(SCc3ccccc3Cl)[nH]2)cc1`, the Potency was active: 10 µM.
For `CCc1cnc2c(c1SC(C(C)=O)C(=O)N(C)C)c(=O)n(C)c(=O)n2C` (configuration not stated), the “activity change, negative = inhibition” value was inactive: 10.2%.
With `CC(C)c1cc(-c2nc(-c3ccc(Cl)cc3)no2)n[nH]1` the Potency was inconclusive [inhibitor, single point].
`O=C(NCc1ccco1)c1cc2cc(Br)ccc2o1` was tested, and the Potency was inconclusive [inhibitor, single point].
`O=C(Cn1cnc2c(nnn2Cc2ccccc2)c1=O)N1CCN(c2ccccc2)CC1` was tested, and the “activity change, negative = inhibition” value was inactive: 11.5%.
For `COc1cccc(-c2nn(C)c3sc(C(=O)NCc4ccc(OC)cc4OC)cc23)c1`, the Potency was inconclusive [inhibitor, partial curve, poor fit].
In the case of `Nc1c(C(=O)OCC2CCCO2)c2nc3ccccc3nc2n1C1CCCC1` (configuration not stated), the Potency is reported as inconclusive [inhibitor, partial curve, poor fit].
In the case of `Cc1ccc(C)c(OCCC(=O)Nc2ccc(S(=O)(=O)N3CCCC3)cc2)c1`, the Potency is reported as inconclusive [inhibitor, single point].
For `Cc1ccc(CNC(=O)c2c(Nc3ccccc3C)sc(C(=O)c3ccc(F)cc3)c2N)cc1`, the Potency was inconclusive [inhibitor, partial curve, poor fit].
In the case of `Cc1ccc(C(=O)N(Cc2ccco2)c2ccccn2)cc1`, the “activity change, negative = inhibition” value is reported as inactive: 1.88%.
With `CN(Cc1ccc2ccccc2c1)C(=O)c1ccc(C(F)(F)F)cc1` the Potency was inconclusive [inhibitor, single point].
`COCCCNCCOc1ccc(C(C)(C)c2ccccc2)cc1` was tested, and the Potency was inconclusive [inhibitor, partial curve, poor fit].
`Cc1nc(SC(C)C(=O)Nc2cccc(C(F)(F)F)c2)c2c(C)c(C(=O)O)sc2n1` (configuration not stated) was tested, and the Potency was inconclusive [inhibitor, single point].
For `C=C[C@@H]1c2cc(C)ccc2N(S(=O)(=O)c2ccc(C)cc2)[C@H](c2ccc(OC(C)=O)cc2)C1(C#N)C#N`, the Potency was inconclusive [inhibitor, full curve, poor fit].
`Cc1cccc(-n2c(SCC(=O)Nc3ccc(C)c(C)c3)nc3n[nH]c(C)c3c2=N)c1` was tested, and the “activity change, negative = inhibition” value was inactive: 10.4%.
For `COC(=O)c1c(-c2ccc(OC)cc2)sc2ccc(OC)cc12`, the Potency was inconclusive [inhibitor, single point].
With `CN(C)C(=O)COC(=O)c1cccc(S(=O)(=O)N2CC3(C)CC2CC(C)(C)C3)c1` (configuration not stated) the Potency was inconclusive [inhibitor, partial curve, poor fit].
For `CC1CC(C)C(=NNC(N)=O)C(C(O)CC2CCC(=O)NC2=O)C1` (configuration not stated), the Potency was inconclusive [inhibitor, single point].
For `COC(=O)C1CCN(C(=O)COC(=O)c2ccc(OC)c(S(=O)(=O)N3CCCc4ccccc43)c2)CC1`, the “activity change, negative = inhibition” value was inactive: 5.06%.
`COc1ccc(/C=C/C(=O)Nc2ccc(-n3nncc3-c3ccccc3)cc2)cc1OC` was tested, and the Potency was inconclusive [inhibitor, full curve, poor fit].
With `S=C1NC2(CCCCC2)NN1c1ccccc1` the Potency was inconclusive [inhibitor, full curve].
With `Cc1ccc(-n2c(-c3ccccc3)c[n+]3c2CCC3)cc1` the Potency was inconclusive [inhibitor, single point].
For `Cc1cc(NC(c2ccc(Cl)cc2)c2ccc3cccnc3c2O)no1` (configuration not stated), the Potency was inconclusive [inhibitor, partial curve, poor fit].
With `CCCCCSc1nnc2c(n1)OC(c1cccn1C)N(C(C)=O)c1ccccc1-2` (configuration not stated) the Potency was inconclusive [inhibitor, single point].
For `COc1ccc(C(C)NC(=O)Nc2ccc(C(C)=O)cc2)cc1OC` (configuration not stated), the “activity change, negative = inhibition” value was inactive: 91.9%.
With `O=[N+]([O-])c1nn(-c2ccccc2)n(O)c1=NCCc1ccccc1` the “activity change, negative = inhibition” value was inactive: -21.3%.
With `CNCC(=O)Nc1ccc(Cl)c(C(F)(F)F)c1` the Potency was inconclusive [inhibitor, partial curve, poor fit].
With `CC1CCc2[nH]c3ccc(C(=O)N4CCCC(C(F)(F)F)C4)cc3c2C1` (configuration not stated) the Potency was active: 10 µM.
For `Cc1ccc(NC(=S)Nc2ccc(F)cc2)cc1C`, the Potency was inconclusive [inhibitor, single point].
With `COc1ccc(N2CCN(CC(O)COc3c(OC)cccc3OC)CC2)cc1` (configuration not stated) the Potency was inconclusive [inhibitor, single point].
For `Cc1cc(F)ccc1NCC(=O)Nc1ccc(Br)cc1C`, the Potency was inconclusive [inhibitor, single point].
`Cc1nn(CC(O)Cn2c3c(c4ccccc42)CCN(C)C3=O)c(C)c1Br` (configuration not stated) was tested, and the Potency was inconclusive [inhibitor, single point].
